This is one part of the list.
What was measured:
Assay in all cases: glycan array binding signal (z-score within array); higher = stronger binding
Conditions in all cases: glycan notation: IUPAC condensed, linker removed
[1] = biological target: Gal(b1-4)GlcNAc(b1-2)[Gal(b1-4)GlcNAc(b1-4)]Man(a1-3)[Gal(b1-4)GlcNAc(b1-2)[Gal(b1-4)GlcNAc(b1-6)]Man(a1-6)]Man(b1-4)GlcNAc(b1-4)GlcNAc
Summary of the method: (§1)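 Glycan array data were curated from 3228 arrays in the Consortium for Functional Glycomics database and kept only where the protein sequence was available. Glycan names were converted to IUPAC-condensed notation, and columns mapping to the same glycan were averaged. The binding signal is a within-array Z-score, averaged across arrays of the same protein sequence at different concentrations or buffers and across linkers. Negative Z-scores can be read as non-binding.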

[2] = biological target: Gal(b1-4)GlcNAc(b1-2)[Gal(b1-4)GlcNAc(b1-4)]Man(a1-3)[GlcNAc(b1-4)][Gal(b1-4)GlcNAc(b1-2)Man(a1-6)]Man(b1-4)GlcNAc(b1-4)GlcNAc
Summary of the method: as §1

[3] = biological target: Gal(b1-4)GlcNAc(b1-2)[Gal(b1-4)GlcNAc(b1-4)]Man(a1-3)[GlcNAc(b1-4)][Gal(b1-4)GlcNAc(b1-2)[Gal(b1-4)GlcNAc(b1-6)]Man(a1-6)]Man(b1-4)GlcNAc(b1-4)GlcNAc
Summary of the method: as §1

[4] = biological target: Gal(b1-4)GlcNAc(b1-2)[Gal(b1-4)GlcNAc(b1-6)]Man(a1-6)[Gal(b1-4)GlcNAc(b1-2)Man(a1-3)]Man(b1-4)GlcNAc(b1-4)GlcNAc
Summary of the method: as §1

[5] = biological target: Gal(b1-4)GlcNAc(b1-2)[Gal(b1-4)GlcNAc(b1-6)]Man(a1-6)[Gal(b1-4)GlcNAc(b1-2)Man(a1-3)]Man(b1-4)GlcNAc(b1-4)[Fuc(a1-6)]GlcNAc
Summary of the method: as §1

[6] = biological target: Gal(b1-4)GlcNAc(b1-2)[Gal(b1-4)GlcNAc(b1-6)]Man(a1-6)[GlcNAc(b1-4)][Gal(b1-4)GlcNAc(b1-2)Man(a1-3)]Man(b1-4)GlcNAc(b1-4)GlcNAc
Summary of the method: as §1

[7] = biological target: Gal(b1-4)GlcNAc(b1-2)[Gal(b1-4)GlcNAc(b1-6)]Man(a1-6)[GlcNAc(b1-4)][Gal(b1-4)GlcNAc(b1-2)[Gal(b1-4)GlcNAc(b1-4)]Man(a1-3)]Man(b1-4)GlcNAc(b1-4)[Fuc(a1-6)]GlcNAc
Summary of the method: as §1

[8] = biological target: Gal(b1-4)GlcNAc(b1-3)Gal(b1-3)GalNAc
Summary of the method: as §1

[9] = biological target: Gal(b1-4)GlcNAc(b1-3)Gal(b1-3)GlcNAc
Summary of the method: as §1

[10] = biological target: Gal(b1-4)GlcNAc(b1-3)Gal(b1-4)Glc
Summary of the method: as §1

[11] = biological target: Gal(b1-4)GlcNAc(b1-3)Gal(b1-4)GlcNAc
Summary of the method: as §1

[12] = biological target: Gal(b1-4)GlcNAc(b1-3)Gal(b1-4)GlcNAc(b1-2)Man(a1-3)[Gal(b1-4)GlcNAc(b1-3)Gal(b1-4)GlcNAc(b1-2)Man(a1-6)]Man(b1-4)GlcNAc(b1-4)GlcNAc
Summary of the method: as §1

[13] = biological target: Gal(b1-4)GlcNAc(b1-3)Gal(b1-4)GlcNAc(b1-2)Man(a1-3)[Gal(b1-4)GlcNAc(b1-3)Gal(b1-4)GlcNAc(b1-2)Man(a1-6)]Man(b1-4)GlcNAc(b1-4)[Fuc(a1-6)]GlcNAc
Summary of the method: as §1

[14] = biological target: Gal(b1-4)GlcNAc(b1-3)Gal(b1-4)GlcNAc(b1-2)[Gal(b1-4)GlcNAc(b1-3)Gal(b1-4)GlcNAc(b1-6)]Man(a1-6)[Gal(b1-4)GlcNAc(b1-3)Gal(b1-4)GlcNAc(b1-2)Man(a1-3)]Man(b1-4)GlcNAc(b1-4)GlcNAc
Summary of the method: as §1

[15] = biological target: Gal(b1-4)GlcNAc(b1-3)Gal(b1-4)GlcNAc(b1-2)[Gal(b1-4)GlcNAc(b1-3)Gal(b1-4)GlcNAc(b1-6)]Man(a1-6)[Gal(b1-4)GlcNAc(b1-3)Gal(b1-4)GlcNAc(b1-2)Man(a1-3)]Man(b1-4)GlcNAc(b1-4)[Fuc(a1-6)]GlcNAc
Summary of the method: as §1

[16] = biological target: Gal(b1-4)GlcNAc(b1-3)Gal(b1-4)GlcNAc(b1-3)Gal(b1-4)GlcNAc
Summary of the method: as §1

[17] = biological target: Gal(b1-4)GlcNAc(b1-3)Gal(b1-4)GlcNAc(b1-3)Gal(b1-4)GlcNAc(b1-2)Man(a1-3)[Gal(b1-4)GlcNAc(b1-3)Gal(b1-4)GlcNAc(b1-3)Gal(b1-4)GlcNAc(b1-2)Man(a1-6)]Man(b1-4)GlcNAc(b1-4)GlcNAc
Summary of the method: as §1

[18] = biological target: Gal(b1-4)GlcNAc(b1-3)Gal(b1-4)GlcNAc(b1-3)Gal(b1-4)GlcNAc(b1-2)Man(a1-3)[Gal(b1-4)GlcNAc(b1-3)Gal(b1-4)GlcNAc(b1-3)Gal(b1-4)GlcNAc(b1-2)Man(a1-6)]Man(b1-4)GlcNAc(b1-4)[Fuc(a1-6)]GlcNAc
Summary of the method: as §1

[19] = biological target: Gal(b1-4)GlcNAc(b1-3)Gal(b1-4)GlcNAc(b1-3)Gal(b1-4)GlcNAc(b1-2)[Gal(b1-4)GlcNAc(b1-3)Gal(b1-4)GlcNAc(b1-3)Gal(b1-4)GlcNAc(b1-6)]Man(a1-6)[Gal(b1-4)GlcNAc(b1-3)Gal(b1-4)GlcNAc(b1-3)Gal(b1-4)GlcNAc(b1-2)Man(a1-3)]Man(b1-4)GlcNAc(b1-4)[Fuc(a1-6)]GlcNAc
Summary of the method: as §1

[20] = biological target: Gal(b1-4)GlcNAc(b1-3)Gal(b1-4)GlcNAc(b1-3)Gal(b1-4)GlcNAc(b1-3)Gal(b1-4)GlcNAc(b1-2)Man(a1-3)[Gal(b1-4)GlcNAc(b1-3)Gal(b1-4)GlcNAc(b1-3)Gal(b1-4)GlcNAc(b1-3)Gal(b1-4)GlcNAc(b1-2)Man(a1-6)]Man(b1-4)GlcNAc(b1-4)GlcNAc
Summary of the method: as §1

[21] = biological target: Gal(b1-4)GlcNAc(b1-3)Gal(b1-4)GlcNAc(b1-3)Gal(b1-4)GlcNAc(b1-3)Gal(b1-4)GlcNAc(b1-2)Man(a1-3)[Gal(b1-4)GlcNAc(b1-3)Gal(b1-4)GlcNAc(b1-3)Gal(b1-4)GlcNAc(b1-3)Gal(b1-4)GlcNAc(b1-2)Man(a1-6)]Man(b1-4)GlcNAc(b1-4)[Fuc(a1-6)]GlcNAc
Summary of the method: as §1

[22] = biological target: Gal(b1-4)GlcNAc(b1-3)Gal(b1-4)GlcNAc(b1-3)Gal(b1-4)GlcNAc(b1-3)Gal(b1-4)GlcNAc(b1-2)[Gal(b1-4)GlcNAc(b1-3)Gal(b1-4)GlcNAc(b1-3)Gal(b1-4)GlcNAc(b1-3)Gal(b1-4)GlcNAc(b1-6)]Man(a1-6)[Gal(b1-4)GlcNAc(b1-3)Gal(b1-4)GlcNAc(b1-3)Gal(b1-4)GlcNAc(b1-3)Gal(b1-4)GlcNAc(b1-2)Man(a1-3)]Man(b1-4)GlcNAc(b1-4)[Fuc(a1-6)]GlcNAc
Summary of the method: as §1

[23] = biological target: Gal(b1-4)GlcNAc(b1-3)Gal(b1-4)GlcNAc(b1-3)Gal(b1-4)GlcNAc(b1-3)Gal(b1-4)GlcNAc(b1-3)Gal(b1-4)GlcNAc(b1-2)Man(a1-3)[Gal(b1-4)GlcNAc(b1-3)Gal(b1-4)GlcNAc(b1-3)Gal(b1-4)GlcNAc(b1-3)Gal(b1-4)GlcNAc(b1-3)Gal(b1-4)GlcNAc(b1-2)Man(a1-6)]Man(b1-4)GlcNAc(b1-4)GlcNAc
Summary of the method: as §1

B1: NPA (Narcissus pseudonarcissus), C0HM45 (protein)
chain: DNILYSGETLSPGEFLNNGRYVFIMQEDCNLVLYDVDKPIWATNTGGLDRRCHLSMQSDGNLVVYSPRNNPIWASNTGGENGNYVCVLQKDRNVVIYGTARWATGTNIH
Question: How did the “glycan array binding signal (z-score)” value [1] turn out when B1 was run?
Answer: The value was -0.084.

Question: And the “glycan array binding signal (z-score)” value [2]?
Answer: The value was -0.15.

Question: And the “glycan array binding signal (z-score)” value [3]?
Answer: The value was -0.152.

Question: What about the “glycan array binding signal (z-score)” value [4] of the same binder?
Answer: Its value is -0.133.

Question: What about the “glycan array binding signal (z-score)” value [5] of the same binder?
Answer: The value was -0.14.

Question: And the “glycan array binding signal (z-score)” value [6]?
Answer: The value was -0.156.

Question: What about the “glycan array binding signal (z-score)” value [7] of the same binder?
Answer: Its value is -0.141.

Question: And the “glycan array binding signal (z-score)” value [8]?
Answer: The value was -0.148.

Question: And the “glycan array binding signal (z-score)” value [9]?
Answer: The value was -0.146.

Question: What about the “glycan array binding signal (z-score)” value [10] of the same binder?
Answer: The value was -0.15.

Question: And the “glycan array binding signal (z-score)” value [11]?
Answer: The value was -0.153.

Question: What about the “glycan array binding signal (z-score)” value [12] of the same binder?
Answer: Its value is 0.034.

Question: What about the “glycan array binding signal (z-score)” value [13] of the same binder?
Answer: The value was -0.066.

Question: And the “glycan array binding signal (z-score)” value [14]?
Answer: Its value is -0.104.

Question: What about the “glycan array binding signal (z-score)” value [15] of the same binder?
Answer: The value was -0.085.

Question: And the “glycan array binding signal (z-score)” value [16]?
Answer: Its value is -0.159.

Question: What about the “glycan array binding signal (z-score)” value [17] of the same binder?
Answer: Its value is 0.089.

Question: And the “glycan array binding signal (z-score)” value [18]?
Answer: The value was -0.101.

Question: And the “glycan array binding signal (z-score)” value [19]?
Answer: Its value is -0.07.

Question: What about the “glycan array binding signal (z-score)” value [20] of the same binder?
Answer: The value was -0.087.

Question: And the “glycan array binding signal (z-score)” value [21]?
Answer: The value was -0.077.

Question: And the “glycan array binding signal (z-score)” value [22]?
Answer: The value was -0.078.

Question: And the “glycan array binding signal (z-score)” value [23]?
Answer: The value was -0.091.

— the supplement of paper PMC8728848
